Data taken from PubChem BioAssay AID1030 (National Center for Advancing Translational Sciences (NCATS), 2008).
Values joined by “and” are separate entries in the source; they are usually repeats but may differ in a detail not shown here. Equal entries are not always repeated. In all, about 220,000 compounds went through this assay and about 16,000 (7.3%) were called active. Inconclusive results, whose numbers are uncertain, are shown with a selection of clear calls. Calls follow the shape of the dose curve; as a rule, active = well fitted inhibition curve with a large enough effect (not every such curve was filed as active); inconclusive = small, poorly fitted or top-dose-only effect, or another doubt; inactive = no such curve, though single readings can be large or run the other way. A potency beside an inconclusive call is a rough fit, not a confirmed value.

What follows are compounds tested against Aldehyde dehydrogenase 1A1 (Homo sapiens) (UniProt P00352) (assay: qHTS Assay for Inhibitors of Aldehyde Dehydrogenase 1 (ALDH1A1)). Settings: Purified ALDH1A1, NADH fluorescence, propionaldehyde substrate; series mostly up to 75.3 µM; activity, negative = inhibition: at the top concentration.
Chain of UniProt P00352 (P00352 whole entry, looked up): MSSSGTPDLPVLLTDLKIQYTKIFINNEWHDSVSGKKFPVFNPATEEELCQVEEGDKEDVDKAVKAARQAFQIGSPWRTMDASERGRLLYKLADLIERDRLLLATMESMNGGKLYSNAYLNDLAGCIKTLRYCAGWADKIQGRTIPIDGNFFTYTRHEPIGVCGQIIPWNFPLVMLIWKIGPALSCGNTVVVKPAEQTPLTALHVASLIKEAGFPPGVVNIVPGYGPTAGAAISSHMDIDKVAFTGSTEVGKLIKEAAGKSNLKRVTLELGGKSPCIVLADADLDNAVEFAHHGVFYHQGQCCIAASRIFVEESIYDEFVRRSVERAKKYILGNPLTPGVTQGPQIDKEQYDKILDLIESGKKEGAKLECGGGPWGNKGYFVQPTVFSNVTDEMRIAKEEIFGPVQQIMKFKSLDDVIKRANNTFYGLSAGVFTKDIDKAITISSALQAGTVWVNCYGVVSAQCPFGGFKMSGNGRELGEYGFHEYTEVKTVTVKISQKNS

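For activity, negative = inhibition in this document: plate controls were no enzyme wells and a reference inhibitor.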
Potency is read from the fitted curve at half-maximal effect; tags tell the direction and shape of the fitted curve.

Row | SMILES | Potency | activity, negative = inhibition
1 | Cc1ccc(-n2c(SCC(=O)N3CC(=O)Nc4ccccc43)nc3ccccc3c2=O)cc1C | inconclusive: 20 µM [inhibitor, partial curve] | –
2 | COc1cc(OC)nc(NC(=O)CN2CCN(c3ccc(F)cc3)CC2)n1 | – | inactive: 1.61%
3 | O=C(c1ccco1)N1CCN(C2CC(=O)N(c3ccccc3)C2=O)CC1 (stereo not given) | active: 20 µM | –
4 | COc1ccc(-c2nnc(NC(=O)c3ccc(S(=O)(=O)N4COCC4(C)C)cc3)o2)cc1 | – | inactive: -12.7%
5 | CC(CN(C)Cc1nc(Cc2cccc(C(F)(F)F)c2)no1)CN1CCCC1 (stereo not given) | inconclusive: 39.8 µM [inhibitor, single point] | –
6 | N#Cc1cc(-c2ccc(Cl)cc2)cnc1Sc1ccc(F)cc1 | inconclusive: 39.8 µM [inhibitor, single point] | –
7 | Cc1nn(-c2nc3ccccc3s2)c(N)c1-c1ccccc1 | inconclusive: 22.4 µM [inhibitor, partial curve] | –
8 | Cc1c(C(=O)O)cccc1-c1ccc(/C=C2/NC(=O)N(c3ccccc3)C2=O)o1 | active: 5.62 µM | –
9 | O=C(Cc1cc(=O)[nH][nH]1)N/N=C/C=C/c1ccccc1 | – | inactive: 4.27%
10 | C=CCNC(=O)CC12CC3CC(C1)CC(CC(=O)NCC=C)(C3)C2 | inconclusive: 39.8 µM [inhibitor, single point] | –
11 | O=C(CCC(=O)N(CC(=O)NC1CCCC1)Cc1ccc2c(c1)OCO2)Nc1ccccn1 | – | inactive: -4.3%
12 | O=C1CCC(c2ccccc2)=NN1Cc1c(F)cccc1Cl | inconclusive: 22.4 µM [inhibitor, partial curve, poor fit] | –
13 | Cc1ccc(C)c(S(=O)(=O)NCCOC(=O)Nc2sc(=S)n(C)c2C)c1 | inconclusive: 39.8 µM [inhibitor, single point] | –
14 | O=C(Nc1ccc(Cl)c(S(=O)(=O)N2CCOCC2)c1)c1cc(-c2ccccn2)nc2ccccc12 | – | inactive: -2.37%
15 | Cc1nc(SCCC(C)C)c([N+](=O)[O-])[nH]1 | inconclusive: 44.7 µM [inhibitor, single point] | –
16 | Cc1ccc(C(=O)Nc2cccc(C(=O)N3CCN(C)CC3)c2)cc1 | inconclusive: 39.8 µM [inhibitor, single point] | –
17 | COc1ccc(CNC(=O)CCCNS(=O)(=O)c2cccc3nonc23)cc1 | active: 14.1 µM | –
18 | CN(C)c1ccnc(Nc2ccc(O)cc2)c1C#N | – | inactive: 13.2%
19 | Cc1ccc(C)c(S(=O)(=O)NCc2ccc(C(=O)NCc3ccco3)cc2)c1 | inconclusive: 28.2 µM [inhibitor, single point] | –
20 | COc1cccc(C(=O)NNC2OC(CO)C(O)C2O)c1 (stereo not given) | inconclusive: 39.8 µM [inhibitor, single point] | –
21 | CC(=O)Nc1cccc(-c2csc(Nc3ncccn3)n2)c1 | inconclusive: 35.5 µM [inhibitor, single point] | –
22 | Cc1nc(N2CCN(C)CC2)c2sc(=S)n(C)c2n1 | inconclusive: 37.7 µM [inhibitor, partial curve, poor fit] | –
23 | C/C=C/C(=O)C[C@H]1CC[C@@H](C)[C@@H](CCO)O1 | inconclusive: 39.8 µM [inhibitor, single point] | –
24 | O=C(Nc1cccc(F)c1)c1ccc2c(c1)OCO2 | – | inactive: -1.25%

Row | SMILES | Potency | activity, negative = inhibition
25 | Nc1nc(-c2ccccc2)c(N=Nc2cccnc2)s1 | active: 20 µM | –
26 | CC(C)(C)n1nnnc1C(c1ccccc1F)N1CCN(C2CCCC2)CC1 (stereo not given) | – | inactive: 6.54%
27 | CCNc1ncc2nc(-c3ccc(Cl)cc3)c(=O)n(C[C@H]3CCCO3)c2n1 | inconclusive: 0.708 µM [inhibitor, full curve] | –
28 | CCOC(=O)C(C(C)C)C(N)Cc1ccc(F)cc1 (stereo not given) | inconclusive: 39.8 µM [inhibitor, single point] | –
29 | COc1cc(-c2nc(-c3ccccc3)c(-c3cccs3)[nH]2)cc(OC)c1O | inconclusive: 35.5 µM [inhibitor, single point] | –
30 | Cn1c(=O)[nH]c(=O)c2c1nc(N1CCCCCC1)n2CC(N)=O | active: 14.1 µM | –
31 | Cc1cccc(NC(=S)NCc2ccc3c(c2)OCO3)c1C | inconclusive: 35.5 µM [inhibitor, single point] | –
32 | O=C(C1CCN(c2ccc(N3CCOCC3)nn2)CC1)N1CCc2ccccc2C1 | inconclusive: 35.5 µM [inhibitor, partial curve] | –
33 | CC(=O)NN1C(=O)c2ccccc2NC1c1ccco1 (stereo not given) | inconclusive: 35.5 µM [inhibitor, partial curve] | –
34 | C/C=N\NC(=O)COc1cc(C)ccc1C | – | inactive: -0.428%
35 | CCN1C(=O)c2cccc3c(NC(=O)C4CCCCC4)ccc1c23 | active: 3.98 µM | –
36 | COc1cccc(NC(=O)CSc2nnc(COc3ccc4c(c3)CCCC4)o2)c1 | inconclusive: 31.6 µM [inhibitor, single point] | –
37 | O=C(CCc1ccccc1)OCCN1CCOCC1 | inconclusive: 39.8 µM [inhibitor, single point] | –
38 | CCC(=O)Nc1nnc(-c2ccccn2)o1 | inconclusive: 25.1 µM [inhibitor, single point] | –
39 | O=C(Nc1ccc2oc(-c3ccncc3)nc2c1)c1ccccc1F | inconclusive: 25.1 µM [inhibitor, partial curve] | –
40 | Cc1cccc(Nc2nnc(C)c(=O)n2N)c1 | – | inactive: 11%
41 | CCc1nc(SCC(=O)NNC(=O)c2ccc(OC)cc2)c2ccccc2n1 | inconclusive: 15.8 µM [inhibitor, partial curve, poor fit] | –
42 | O=C(Nc1cnn(Cc2ccccc2)c1)NC12CC3CC(CC(C3)C1)C2 | – | inactive: -13.2%
43 | CC(NC(=O)CCc1nnc(-c2ccc(-c3ccccc3)cc2)o1)c1nc2ccccc2[nH]1 (stereo not given) | inconclusive: 39.8 µM [inhibitor, single point] | –
44 | CC(C)C12CC[C@@]3(CC[C@H]4[C@@](C)(CCC[C@]4(C)C(=O)O)[C@@H]3C1)[C@@H](CN)C2 | inconclusive: 8.91 µM [inhibitor, single point] | –
45 | NC(=O)c1nsc(C(=O)N(CC(=O)NCc2ccc3c(c2)OCO3)C2CCCC2)c1N | inconclusive: 28.2 µM [inhibitor, partial curve] | –
46 | CN1C(=O)/C(=C/c2ccccc2OCc2ccccc2)NC1=S | inconclusive: 14.1 µM [inhibitor, partial curve] | –
47 | COc1cc(NC(=S)NCCc2ccc(S(N)(=O)=O)cc2)c(OC)cc1Cl | active: 11.2 µM | –
48 | CON(C)C(=O)c1nnc2c3ccccc3n(S(=O)(=O)c3ccc(C)cc3)c2n1 | inconclusive: 3.98 µM [inhibitor, partial curve] and inconclusive: 3.55 µM [inhibitor, single point] | –

Row | SMILES | Potency | activity, negative = inhibition
49 | O=C(COc1ncnc2ccccc12)NCCCN1CCCC1=O | inconclusive: 39.8 µM [inhibitor, single point] | –
50 | O=C(Nc1ccc(F)c(F)c1)c1oc2ccccc2c1NC(=O)C1CCCO1 (stereo not given) | inconclusive: 39.8 µM [inhibitor, single point] | –
51 | CC(C)(C)C(=O)NC(=S)NNC(=O)C(c1ccccc1)c1ccccc1 | inconclusive: 28.2 µM [inhibitor, single point] | –
52 | O=C(CSCC(=O)Nc1cccc([N+](=O)[O-])c1)Nc1ccccc1 | inconclusive: 25.1 µM [inhibitor, single point] | –
53 | CN(Cc1ccccc1)C(=S)Nc1ccc2nc3n(c(=O)c2c1)CCCCC3 | – | inactive: -0.282%
54 | Cc1cccc(NC(=O)C2CCCN2S(=O)(=O)c2cccc3cccnc23)c1 (stereo not given) | inconclusive: 39.8 µM [inhibitor, single point] | –
55 | O=C(CCN1CCCCC1)N=Nc1c(O)[nH]c2ccccc12 | inconclusive: 11.2 µM [inhibitor, partial curve] | –
56 | Cc1sc2ncnc(OCC(=O)N3CCN(C(=O)c4ccco4)CC3)c2c1C | active: 3.16 µM | –
57 | Cc1nc(NCc2ccccc2)c2nc(-c3ccccc3)n(CCN3CCCC3)c2n1 | inconclusive: 25.1 µM [inhibitor, partial curve] | –
58 | CCC(=O)Nc1sc2c(c1C(=O)N(C)C)CCCCC2 | inconclusive: 39.8 µM [inhibitor, single point] | –
59 | O=C(CCc1nc(-c2ccccc2)no1)NCc1ccco1 | inconclusive: 39.8 µM [inhibitor, single point] | –
60 | CC(Sc1n[nH]c(N)n1)c1nc2scc(-c3cccs3)c2c(=O)[nH]1 (stereo not given) | inconclusive: 37.7 µM [inhibitor, single point] | –
61 | Cc1ccc[n+](CC(=O)c2ccc(-c3ccccc3)cc2)c1 | inconclusive: 28.2 µM [inhibitor, partial curve] | –
62 | COC(=O)c1cccc(-n2c(C)cc(C=O)c2C)c1C | active: 0.631 µM | –
63 | COCC(C)N1C(=O)Cc2c1nc(N)c1c(N)nc(N3CCN(c4ccccc4F)CC3)c(C#N)c21 (stereo not given) | inconclusive: 3.98 µM [inhibitor, full curve] | –
64 | N#C/C(=C\c1ccc(Sc2nc3ccccc3[nH]2)o1)c1ccccc1 | inconclusive: 15.8 µM [inhibitor, partial curve] | –
65 | CCOC(=O)C1(Cc2cccc(F)c2)CCN(Cc2cnn(CC)c2C)CC1 | – | inactive: -13.8%
66 | Cc1ccc(CNC(=O)c2nn(C)c(C)c2[N+](=O)[O-])cc1 | – | inactive: 5.37%
67 | COc1cccc(-c2ccc(=O)n(CC(=O)Nc3ccc(C(=O)N4CCCC4)cc3)n2)c1 | inconclusive: 39.8 µM [inhibitor, single point] | –
68 | CC(C)CCc1noc(CN2CCN(c3ccc(Cl)cn3)CC2)n1 | active: 3.98 µM | –
69 | COc1ccc(-c2nn(-c3ccccc3)cc2CNCCN2CCOC2=O)c(F)c1 | inconclusive: 39.8 µM [inhibitor, single point] | –
70 | Cc1[nH]c2ccccc2c1Cc1n[nH]c(=S)n1C | – | inactive: -12%
